This note sets out measurements from publication PMC12136788.

This is one part of the list.

Sequences and labels used below:
T1: UNK ZnF1-3 (human, UniProt Q9C0B0 31-174)
T1 sequence: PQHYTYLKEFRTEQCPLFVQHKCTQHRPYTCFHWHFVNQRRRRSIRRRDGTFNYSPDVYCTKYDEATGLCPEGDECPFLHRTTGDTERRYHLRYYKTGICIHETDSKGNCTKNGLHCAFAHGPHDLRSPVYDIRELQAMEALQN

B1: chr10:126434673:126434674:+_ENSMUSG00000078429_ENSMUST00000105256|mus_mus|FALSE|FALSE (ssRNA)
RNA: GGGAGUUCUACAGUCCGACGAUCUGACUGACAUUGAAAGCAACAGGGCUGAGAGCUCAGAGCUGCCCAGAGCACAGAGCUAUGAGGACCUCACUCAGUCCUAUAACGAGAAGCAGGAGGCAUUUGGCAAAUCAAGUAAGAGCACAACAGAGGAUUGAGCAUCA
B2: 74646769_74647007_1152_CDS_ENSG00000113161_ENST00000287936|human|control|control (ssRNA)
RNA: GGGAGUUCUACAGUCCGACGAUCGUUUUUUAAUGAGAGUGUAGAUUCUGUCUCUGUUUGUUCAAAGAAGAUGUACUUGACAGCCAGAAGGAGAGCUAAACUUAGGGUAAUAACUUGUUCAAUAUCCAUGCUGAUCAUUUUAGACAACAGAGGAUUGAGCAUCA
B3: chr6:109690081:109690082:-_ENSG00000135535_ENST00000310786|hu_hu|FALSE|FALSE (ssRNA)
RNA: GGGAGUUCUACAGUCCGACGAUCCAGUCCUUAUUAAUUCAAUGGGUCUGUUUACAGAGUGUGGUAAUUUCGUUCUUUAGAUUUGCAGAAUUUAUAAAGAAAGAAAAUUACAGCCUGCACACCCAAGACCAGGACAAUUCCUCCCAACAGAGGAUUGAGCAUCA
B4: chr2:198351390:198351391:-_ENSG00000144381_ENST00000345042|hu_hu|hu_hu_hu_mus_False|68_108 (ssRNA)
RNA: GGGAGUUCUACAGUCCGACGAUCUCAUUCUCACUCUCCACAGAAAGGCUGCUUCUGAACUCUCAUGGUGGUGGCAAGCGCUACAGUCCUGAUGCUCACAGAACAGUAGAGAUGCCUCAGUGAUUUAAGUUGAAAGCAGGACACCAACAGAGGAUUGAGCAUCA
B5: chr1:235506033:235506034:+_ENSG00000152904_ENST00000391855|hu_mus|FALSE|FALSE (ssRNA)
RNA: GGGAGUUCUACAGUCCGACGAUCAUAGUAUUAUUUAUUUUCUUCUGUGAACAUCUUACUUAAGUGCUUGACUAAAGCCACUAGUGAAGGGUUCCCACCACAGGCCUCAAUUUGUUUGUAGGCUUUAGCUUCAAGCUCUCUAAGCAACAGAGGAUUGAGCAUCA
B6: 28084974_28085094_2391_CDS_ENSMUSG00000002221_ENSMUST00000002291|mouse|control|control (ssRNA)
RNA: GGGAGUUCUACAGUCCGACGAUCAAGACCCAAGACCAAGUGUGGAGUGGGAACGAAGGGGUCCGGCAUGUUGAAGGCGGUGUACCGGCUGUACUGCACUUGCCGCAGGGCCUCAAAGUUCCCCAGCAGAAUGUCCCCCAGCCACAACAGAGGAUUGAGCAUCA
B7: chr11:74329583:74329584:+_ENSG00000077514_ENST00000263681|hu_hu|motif|central (ssRNA)
RNA: GGGAGUUCUACAGUCCGACGAUCAGACGAAGAGGAUUCAGCAGGAGCUCUAGGGACGGCAGCUGCACAUUGUAUAGCACGGAAUUUGCUGCAGUUCUGCAAGUUGCUUUUAAGGAUGUCAUAGUCAGUAUUGAACAGAGGCCCCAACAGAGGAUUGAGCAUCA
B8: chr4:39739082:39739083:+_ENSG00000078140_ENST00000261427|perfect_dup|FALSE|FALSE (ssRNA)
RNA: GGGAGUUCUACAGUCCGACGAUCUAUUUUUAUCUCUAGUUGGUAUCUUCCUCCUUCAUAUGGUGUGUCUGGAGGUCCUGCUAUUUCUCCUCUUAAUUCUGUAAAAUUCUCAUCUACAAGAUCUACUUUAAUUUGAUUUUUGCUCAACAGAGGAUUGAGCAUCA
B9: chr2:71371598:71371599:+_ENSG00000124383_ENST00000244230|hu_hu|FALSE|FALSE (ssRNA)
RNA: GGGAGUUCUACAGUCCGACGAUCAAAGUGGAAGUUUGAGAGGGCAUCCAAUUUUAAGAAGAGGGAAUCCAUCAUCUUCUGAAUUUCUACAUGUUCUGGAUUUUCUUCUUCUGCUGUUUUUUGCUGGUUGAGUUUGAUGUACUCCAACAGAGGAUUGAGCAUCA
B10: chr18:52893488:52893489:-_ENSG00000196628_ENST00000354452|hu_hu|hu_hu_hu_mus_True|1_38 (ssRNA)
RNA: GGGAGUUCUACAGUCCGACGAUCUAUUUAGACCAUUUCCGCGGAGUUAUGGCAUUUACUCAGUGCUGAUAGGUGGAAAAACUACUUCAACAGGGAUUUUUUUUUUUCUUAAUACAUGCCAAGAUUGUGUGGCUGUCAAAAAUACAACAGAGGAUUGAGCAUCA
B11: 27494382_27495587_4028_CDS_ENSG00000077235_ENST00000561623|human|control|control (ssRNA)
RNA: GGGAGUUCUACAGUCCGACGAUCACCUCUUCGAUUCAUGAAAUCUCCAACAAGUGCUUUAUCCUGGUACACCUCGGCCAGGCACACUUUAUAGUUGAGAUAGGCCUGUGGGUUUUUGACUAUGUAGCGAGCUCUUCGUCCAACCAACAGAGGAUUGAGCAUCA
B12: chrX:119387588:119387589:+_ENSG00000177485_ENST00000326624|hu_hu|motif|central (ssRNA)
RNA: GGGAGUUCUACAGUCCGACGAUCUGAGAUGCUUUUAACCUGUGACAAUGGGACACCAAGCUCUGCUAUAAAUUUCACUCCGGAUAACUGCCCUGAUUUAAUUAACUCAUCAAGCAAAUCUGAUCUAACACGAACAAUUUUAGACAACAGAGGAUUGAGCAUCA
B13: chr7:54825262:54825263:-_ENSG00000132432_ENST00000352861|hu_hu|hu_hu_hu_mus_False|8_28 (ssRNA)
RNA: GGGAGUUCUACAGUCCGACGAUCCUGCCGGCUGGGCUCCACAAACUGCAUUACCUGAUCCAUGUUUGUUGGAUGGCGGAUUGAGAGCGUAGAGACACGUAGCUCAGGGAGCUUGCUAGCCCAACGGCACCGGAACCUGGCAACCAACAGAGGAUUGAGCAUCA
B14: chr1:117910967:117910968:+_ENSG00000198162_ENST00000356554|hu_hu|motif|central (ssRNA)
RNA: GGGAGUUCUACAGUCCGACGAUCUUUUGAAGAGUCUGGAAGGAAAAAGAAUGCCCCAAAACACAGAGUGAUGAAGGCACGGAGAAUAAGGAGAAGAAUAAACUUCUCAGAAAGUCUCAAGGUAGCCCUGUGAUGUGGGAAGGACAACAGAGGAUUGAGCAUCA
B15: 87969386_87969506_6142_CDS_ENSG00000188994_ENST00000369577|human|control|control (ssRNA)
RNA: GGGAGUUCUACAGUCCGACGAUCUGUUUUGUCAGGACUUUUUUUUUCUACAAGUUGUUUUUCUGGGAUCACUGCUACAUUACUGUGGGUAUUUUGGGUCUCUGCUCUCAAUUCUAAAGCAGGCUGAGAUUCCUUUUUAUUUUCCAACAGAGGAUUGAGCAUCA
B16: chr18:52894491:52894492:-_ENSG00000196628_ENST00000354452|hu_hu|motif|central (ssRNA)
RNA: GGGAGUUCUACAGUCCGACGAUCAAAAAAAAAAAAUCCAUAUUUACAGUAAAAUCUUUCUUUUAAAAAAGUUAAUCAGUACGGUUUUUUUACAGGAGAAAAAAGUCUGAAACAAAUGAACAAAAGCUUACCAUAGUCACUAAACAACAGAGGAUUGAGCAUCA
B17: 32174041_32184526_3110_CDS_ENSMUSG00000029765_ENSMUST00000115096|mouse|control|control (ssRNA)
RNA: GGGAGUUCUACAGUCCGACGAUCUCCCGACUGAGGCUGUGGGAGGUUCUUAGCCUUCAGAGUGAUGGGCUUGAUCACCUCUACUGGAACGAGGAUCUUGUCCACUCGCAGCAGCUGGGGGCAGUCCUCAGGUAGCUUCACUCGCAACAGAGGAUUGAGCAUCA
B18: chr8:35203877:35203878:-_ENSMUSG00000031513_ENSMUST00000033910|mus_mus|FALSE|FALSE (ssRNA)
RNA: GGGAGUUCUACAGUCCGACGAUCGGAAGGGCACAUCCAAGCAUCAGGAACAUCAGCCCGAUCGCUCCUCCAAAGGACAAACUAAUUAAAGCUUUGAUGCCCGCCAUGGCGGUGACGUCGCUCCUGGCUCCACGACCCGGGCGGCAACAGAGGAUUGAGCAUCA
B19: chr1:46159212:46159213:+_ENSG00000159596_ENST00000372025|hu_mus|hu_hu_hu_mus_True|68_108 (ssRNA)
RNA: GGGAGUUCUACAGUCCGACGAUCUCUGAUCCCACCCAAGAAAGCUAGGAAACCGGCUCCAUAAGCCAUCUGAGUAAAAGCUAGGACGGGGAUAUAAGACUUUGUUAUUACCAUGAGAAGUGGGGGAGCAGUAAAGGGGAUUAACAACAGAGGAUUGAGCAUCA
B20: chr10:122565287:122565288:-_ENSMUSG00000020124_ENSMUST00000020334|mus_hu|motif|central (ssRNA)
RNA: GGGAGUUCUACAGUCCGACGAUCAAUUUUGGGGACAACCACUUUGUACUGCAUAGGUUUGGUAAGUGGAUCCAUUCGGACGGAGUAAACUUCCAAGGUGCGUUCUUUUUUCAUGGGCAAUGGAAGUGUCAAGUAACAAAAAGGCAACAGAGGAUUGAGCAUCA
B21: chr16:20684184:20684185:+_ENSMUSG00000045983_ENSMUST00000044783|mus_mus|FALSE|FALSE (ssRNA)
RNA: GGGAGUUCUACAGUCCGACGAUCUGGAGGGCCACCCCGACGUUUGUCGCUGCCCUUGGCCAUGAGCUGCUGUACUUUAAUAUGUUCUCGGUGCUCUUCCAUCUCAGCCUCCUUGUGAAUUUGAUCAAUAGUCUUAGGACCCUGCAACAGAGGAUUGAGCAUCA
B22: chr1:10192443:10192444:+_ENSG00000130939_ENST00000377157|hu_mus|motif|central (ssRNA)
RNA: GGGAGUUCUACAGUCCGACGAUCAAGGGCCGCCAUGUAGCUGAGAGCCGCUUCACGAGUUUCGCCAUUUAACAAAAUACGGUGUAGAAUCUUGAAAAGUUCUUGCCGUCCCAGCUCCAGGUAAUGCUGUAGUGACUGGCUGACCAACAGAGGAUUGAGCAUCA

This test has as its target T1, UNK ZnF1-3. Description: nsRBNS (natural sequence RNA bind-n-seq); RBNS binding buffer (assumed for nsRBNS): 25 mM Tris pH 7.5, 150 mM KCl, 3 mM MgCl2, 0.01% Triton X-100, 500 ug/ml BSA, 20 U/ml SUPERase-In, 4 C; UNK is unkempt and MSI1 is Musashi-1; names of the RNAs are library labels; protein concentration not given here; high values mean tight binding.
In turn, B1 displayed a binding signal of 2.2 enrichment R.
As to B2, the binding signal came out at 0.889 enrichment R.
Molecule B3 showed a binding signal of 1.4 enrichment R.
The figure for B4 is 1.14 enrichment R; for B5 it is 0.938 enrichment R; for B6 it is 0.846 enrichment R.
Then B7, with 1.36 enrichment R.
The molecule B8 gave a binding signal of 0.379 enrichment R.
B9 returned a binding signal of 0.987 enrichment R.
The figure for B10 is 1.06 enrichment R; for B11 it is 1.08 enrichment R.
The figure for B12 is 1.4 enrichment R; for B13 it is 1.23 enrichment R; for B14 it is 2.8 enrichment R.
B15 registered a binding signal of 0.454 enrichment R.
The figure for B16 is 1.13 enrichment R; for B17 it is 0.971 enrichment R; for B18 it is 1.71 enrichment R.
Then B19, with 1.53 enrichment R; and B20, with 1.22 enrichment R; and B21, with 0.843 enrichment R.
The molecule B22 registered a binding signal of 1.54 enrichment R.
